Publication PMC9986587
No constants are given. Whether binding was seen depends on the method and setting. Binding seen in cells or lysates may run through a third protein. Some entries that bind do so weakly or less than the wild type. Sequences can lack the tags named with a protein.

Key:
Assay in all cases: co-IP; 293T cells transiently cotransfected with a Flag-tagged and a 6Myc-tagged protein; cell extracts two days after transfection; immunoprecipitation with anti-Flag antibodies, anti-Myc Western blot
[1] = biological target: T1, Flag-tagged JMJD2A amino acids 2-703 (UniProt O75164)
T1 sequence: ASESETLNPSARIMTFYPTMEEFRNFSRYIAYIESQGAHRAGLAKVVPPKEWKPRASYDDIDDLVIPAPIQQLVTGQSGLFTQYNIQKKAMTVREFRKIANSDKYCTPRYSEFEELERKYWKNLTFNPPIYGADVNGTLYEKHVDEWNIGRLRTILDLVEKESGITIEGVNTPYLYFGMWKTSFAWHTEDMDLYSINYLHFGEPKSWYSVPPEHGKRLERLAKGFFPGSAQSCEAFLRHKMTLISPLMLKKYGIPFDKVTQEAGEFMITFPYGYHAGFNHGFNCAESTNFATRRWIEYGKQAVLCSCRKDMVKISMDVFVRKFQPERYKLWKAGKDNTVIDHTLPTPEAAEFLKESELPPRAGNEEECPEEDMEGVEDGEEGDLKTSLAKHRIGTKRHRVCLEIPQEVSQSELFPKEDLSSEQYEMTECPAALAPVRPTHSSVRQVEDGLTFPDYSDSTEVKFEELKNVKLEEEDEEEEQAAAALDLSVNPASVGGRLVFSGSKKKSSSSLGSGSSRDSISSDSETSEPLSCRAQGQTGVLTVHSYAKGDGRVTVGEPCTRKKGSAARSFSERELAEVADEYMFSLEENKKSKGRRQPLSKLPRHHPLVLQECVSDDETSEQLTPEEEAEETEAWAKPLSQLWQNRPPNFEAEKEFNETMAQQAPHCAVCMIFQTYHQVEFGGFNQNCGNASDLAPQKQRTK

Flag-JMJD2A = biological target: T2, Flag-JMJD2A (UniProt O75164)
T2 sequence: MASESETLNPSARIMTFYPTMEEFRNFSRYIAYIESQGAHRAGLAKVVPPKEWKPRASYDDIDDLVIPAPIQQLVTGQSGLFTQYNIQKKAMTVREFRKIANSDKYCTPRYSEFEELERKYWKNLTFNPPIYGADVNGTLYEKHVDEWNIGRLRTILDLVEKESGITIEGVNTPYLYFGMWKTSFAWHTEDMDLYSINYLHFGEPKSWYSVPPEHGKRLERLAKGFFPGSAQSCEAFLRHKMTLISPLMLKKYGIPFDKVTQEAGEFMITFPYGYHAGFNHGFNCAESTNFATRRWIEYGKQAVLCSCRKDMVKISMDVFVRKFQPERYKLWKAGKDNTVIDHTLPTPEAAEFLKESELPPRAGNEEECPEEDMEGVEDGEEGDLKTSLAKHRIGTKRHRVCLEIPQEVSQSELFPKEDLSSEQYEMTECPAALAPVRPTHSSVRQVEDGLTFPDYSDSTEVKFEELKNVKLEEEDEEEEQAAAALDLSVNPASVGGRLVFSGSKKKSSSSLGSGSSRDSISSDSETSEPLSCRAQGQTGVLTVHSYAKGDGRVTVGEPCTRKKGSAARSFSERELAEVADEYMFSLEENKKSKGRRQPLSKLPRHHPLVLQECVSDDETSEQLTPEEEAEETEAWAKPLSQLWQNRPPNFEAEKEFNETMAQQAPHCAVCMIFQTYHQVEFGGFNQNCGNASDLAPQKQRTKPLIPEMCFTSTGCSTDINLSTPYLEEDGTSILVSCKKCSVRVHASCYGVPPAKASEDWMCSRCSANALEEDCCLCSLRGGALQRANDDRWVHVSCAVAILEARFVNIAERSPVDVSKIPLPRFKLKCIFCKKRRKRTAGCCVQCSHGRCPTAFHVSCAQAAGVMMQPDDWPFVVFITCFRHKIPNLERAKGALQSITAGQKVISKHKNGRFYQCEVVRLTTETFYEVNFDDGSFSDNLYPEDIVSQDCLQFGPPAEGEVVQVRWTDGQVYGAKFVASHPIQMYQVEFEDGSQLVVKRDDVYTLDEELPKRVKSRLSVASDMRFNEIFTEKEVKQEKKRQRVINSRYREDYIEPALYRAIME

[2] = biological target: T3, Flag-tagged JMJD2A amino acids 61-1064 (UniProt O75164)
T3 sequence: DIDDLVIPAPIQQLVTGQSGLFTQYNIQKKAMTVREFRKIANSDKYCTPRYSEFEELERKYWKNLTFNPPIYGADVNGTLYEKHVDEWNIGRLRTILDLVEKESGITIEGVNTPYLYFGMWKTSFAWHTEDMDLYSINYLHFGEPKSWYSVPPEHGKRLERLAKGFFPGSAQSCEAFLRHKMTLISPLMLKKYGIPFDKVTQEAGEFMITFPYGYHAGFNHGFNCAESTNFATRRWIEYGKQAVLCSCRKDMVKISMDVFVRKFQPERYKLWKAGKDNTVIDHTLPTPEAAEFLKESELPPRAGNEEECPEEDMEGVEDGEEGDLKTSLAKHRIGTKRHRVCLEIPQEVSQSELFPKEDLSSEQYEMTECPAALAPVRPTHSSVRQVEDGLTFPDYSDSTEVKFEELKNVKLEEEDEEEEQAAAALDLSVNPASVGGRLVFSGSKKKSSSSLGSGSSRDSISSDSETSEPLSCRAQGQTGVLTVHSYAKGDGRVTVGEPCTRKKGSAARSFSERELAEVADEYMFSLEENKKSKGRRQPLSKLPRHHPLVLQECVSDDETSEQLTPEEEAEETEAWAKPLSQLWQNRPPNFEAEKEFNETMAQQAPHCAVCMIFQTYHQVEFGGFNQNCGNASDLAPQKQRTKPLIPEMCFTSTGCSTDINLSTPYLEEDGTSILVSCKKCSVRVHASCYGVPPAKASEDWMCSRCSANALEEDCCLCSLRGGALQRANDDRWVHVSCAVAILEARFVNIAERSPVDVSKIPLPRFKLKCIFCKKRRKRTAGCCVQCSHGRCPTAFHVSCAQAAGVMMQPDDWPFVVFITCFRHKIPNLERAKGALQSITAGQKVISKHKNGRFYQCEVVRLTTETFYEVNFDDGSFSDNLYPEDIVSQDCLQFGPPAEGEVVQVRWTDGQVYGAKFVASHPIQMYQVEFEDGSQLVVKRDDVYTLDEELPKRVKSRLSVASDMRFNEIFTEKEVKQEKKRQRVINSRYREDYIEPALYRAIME

binding [1]: binds
binding (Flag-JMJD2A): binds
binding [2]: binds
B1: 6Myc-JMJD1A (protein, UniProt Q9Y4C1 1-1321)
chain: MVLTLGESWPVLVGRRFLSLSAADGSDGSHDSWDVERVAEWPWLSGTIRAVSHTDVTKKDLKVCVEFDGESWRKRRWIEVYSLLRRAFLVEHNLVLAERKSPEISERIVQWPAITYKPLLDKAGLGSITSVRFLGDQQRVFLSKDLLKPIQDVNSLRLSLTDNQIVSKEFQALIVKHLDESHLLKGDKNLVGSEVKIYSLDPSTQWFSATVINGNPASKTLQVNCEEIPALKIVDPSLIHVEVVHDNLVTCGNSARIGAVKRKSSENNGTLVSKQAKSCSEASPSMCPVQSVPTTVFKEILLGCTAATPPSKDPRQQSTPQAANSPPNLGAKIPQGCHKQSLPEEISSCLNTKSEALRTKPDVCKAGLLSKSSQIGTGDLKILTEPKGSCTQPKTNTDQENRLESVPQALTGLPKECLPTKASSKAELEIANPPELQKHLEHAPSPSDVSNAPEVKAGVNSDSPNNCSGKKVEPSALACRSQNLKESSVKVDNESCCSRSNNKIQNAPSRKSVLTDPAKLKKLQQSGEAFVQDDSCVNIVAQLPKCRECRLDSLRKDKEQQKDSPVFCRFFHFRRLQFNKHGVLRVEGFLTPNKYDNEAIGLWLPLTKNVVGIDLDTAKYILANIGDHFCQMVISEKEAMSTIEPHRQVAWKRAVKGVREMCDVCDTTIFNLHWVCPRCGFGVCVDCYRMKRKNCQQGAAYKTFSWLKCVKSQIHEPENLMPTQIIPGKALYDVGDIVHSVRAKWGIKANCPCSNRQFKLFSKPASKEDLKQTSLAGEKPTLGAVLQQNPSVLEPAAVGGEAASKPAGSMKPACPASTSPLNWLADLTSGNVNKENKEKQPTMPILKNEIKCLPPLPPLSKSSTVLHTFNSTILTPVSNNNSGFLRNLLNSSTGKTENGLKNTPKILDDIFASLVQNKTTSDLSKRPQGLTIKPSILGFDTPHYWLCDNRLLCLQDPNNKSNWNVFRECWKQGQPVMVSGVHHKLNSELWKPESFRKEFGEQEVDLVNCRTNEIITGATVGDFWDGFEDVPNRLKNEKEPMVLKLKDWPPGEDFRDMMPSRFDDLMANIPLPEYTRRDGKLNLASRLPNYFVRPDLGPKMYNAYGLITPEDRKYGTTNLHLDVSDAANVMVYVGIPKGQCEQEEEVLKTIQDGDSDELTIKRFIEGKEKPGALWHIYAAKDTEKIREFLKKVSEEQGQENPADHDPIHDQSWYLDRSLRKRLHQEYGVQGWAIVQFLGDVVFIPAGAPHQVHNLYSCIKVAEDFVSPEHVKHCFWLTQEFRYLSQTHTNHEDKLQVKNVIYHAVKDAVAMLKASESSFGKP
